Measured values published in PubChem BioAssay AID463173 (ICCB-Longwood Screening Facility, Harvard Medical School, 2010).
The campaign covered roughly 52,000 compounds. About 1,700 (3.3%) were called active. Cut-off read from the data, not from the text of the source: active = survival mostly below about 52% (no sharp cut-off); inactive = mostly above about 56%. The list shows a part of the results.

The compounds below were run on Wild type (assay: S. aureus survival, RN4220 and DeltatarO strains – OD600, teichoic acid synthesis inhibitors, primary screen (AID 463173)). Conditions: S. aureus RN4220 wild type/DeltatarO growth, OD600, 18 h, hits give low values, screened at 18.75 µg/mL (by protocol).

| Structure (SMILES) | survival |
| --- | --- |
| CCc1nn(CC(=O)NCCCc2ccccc2)c(=O)c2cc3cc(F)ccc3n12 | inactive: 96% |
| Cc1ccc(CNC(=O)Cn2c(-c3cccs3)cc3cc(Cl)ccc32)cc1 | inactive: 85% |
| O=C(CSCn1nnc2c(=O)[nH]c(Cc3ccc(F)cc3)nc21)Nc1ccccc1 | inactive: 81% |
| COc1ccc(NC(=O)C2=CC(c3ccc4c(c3)OCO4)=NS(=O)(=O)N2C)cc1OC | inactive: 83% |
| O=S(=O)(c1ccc(Cl)cc1)c1nc(-c2ccccc2F)oc1NCc1ccccc1 | inactive: 83% |
| Cc1cccc(N2C(=O)C(CC(=O)Nc3cccc(F)c3)N(CCc3ccncc3)C2=O)c1 (stereo unspecified) | inactive: 84% |
| Cc1ccc(C(=O)Nc2ccc(S(=O)(=O)N(Cc3ccccc3)c3ccccc3)cc2)cc1 | inactive: 77% |
| O=C(CSCc1ccccc1Cl)N/N=C/c1ccco1 | inactive: 105% |
| CCC(C)NC(=O)C1CCN(Cc2cc(OC)ccc2OC)CC1 (stereo unspecified) | inactive: 104% |
| Cc1cc(F)ccc1S(=O)(=O)Nc1cc2c(C(=O)O)c(C)oc2c2ccccc12 | inactive: 51% |
| Cc1cc(N2CCN(c3cc(Cl)ccc3C)CC2)n2nc(-c3ccccc3)nc2n1 | inactive: 83% |
| COc1ccc(OC)c(CC2C(=O)Nc3ccc(Br)cc32)c1 (stereo unspecified) | inactive: 84% |
| COC(=O)c1cc2sccc2n1Cc1ccc(F)cc1Cl | inactive: 46% |
| CCOC(=O)c1c(C)oc2ccc(N(C(C)=O)S(=O)(=O)c3c(C)cc(C)cc3C)cc12 | inactive: 131% |
| O=C(COc1ccc(F)cc1)Nc1ccc2nc(SCCOc3ccccc3)sc2c1 | inactive: 88% |
| N#Cc1ccc(NC(=O)C2Cc3ccccc3CN2S(=O)(=O)c2ccc(F)cc2)cc1 (stereo unspecified) | inactive: 64% |
| CCCCNC(=O)C1CCC(Cn2c(=O)c3sccc3n(CC(=O)Nc3ccccc3)c2=O)CC1 (stereo unspecified) | inactive: 110% |
| Cc1nc2cc(NC(=O)Nc3ccccc3Cl)ccc2n1C | inactive: 109% |
| COCCn1c(=N)c(C(=O)NC2CCCC2)cc2c(=O)n3cc(C)ccc3nc21 | inactive: 88% |

| Structure (SMILES) | survival |
| --- | --- |
| O=C(Nc1ccccc1C(=O)OCc1cc(=O)n2ccsc2n1)c1ccccc1Cl | inactive: 75% |
| O=C(NC1CCN(Cc2ccccc2)CC1)c1ccc(Cn2c(=O)c3ccccc3n(Cc3cccc(F)c3)c2=O)cc1 | inactive: 94% |
| CCN(CC)CCNC(=O)c1cn(CC)c2ccc(S(=O)(=O)N3CCc4ccccc4C3)cc2c1=O | inactive: 82% |
| CCC(=O)N1CCc2cc(Br)cc(S(=O)(=O)N3CCN(c4cc(C)ccc4C)CC3)c21 | inactive: 66% |
| CCOC(=O)c1cc(-c2ccc(C)cc2)n(CCC(=O)NCCc2ccc(C)cc2)c1C | inactive: 98% |
| Cc1cccc(C)c1NC(=O)CCC(=O)N1Cc2ccccc2Oc2ncccc21 | inactive: 69% |
| CCC(=O)N1CCc2cc(Br)cc(S(=O)(=O)CCC(=O)Nc3ccc(Cl)cc3)c21 | inactive: 77% |
| COc1cc(-c2cc3n(C)c(C)c(CCC(=O)NC4CCCCC4)c(=O)n3n2)cc(OC)c1OC | inactive: 90% |
| CC(=O)NC1(c2ccccc2F)CCN(CC(=O)N2CCN(C(=O)c3ccco3)CC2)CC1 | inactive: 103% |
| O=C(Cc1ccc(NC(=O)N2CCSc3ncccc32)cc1)NCc1cccc(Cl)c1 | inactive: 65% |
| Cc1ccc(NC(=O)C2CCCN2S(=O)(=O)c2cccc3cccnc23)c(C)c1 (stereo unspecified) | inactive: 81% |
| O=C(Nc1cccc(OCc2cc(=O)n3ccccc3n2)c1)Nc1cccc(C(F)(F)F)c1 | active: -6% |
| Cc1ccc2c(=O)c(C(=O)c3ccc(Cl)cc3)cn(CC(=O)Nc3ccc4c(c3)OCCO4)c2n1 | inactive: 76% |
| Cc1cccc(C(=O)NCc2nc3ccccc3n2Cc2ccccc2Cl)c1 | inactive: 107% |
| CCOc1ccccc1CNC(=O)c1oc2c(c1C)-c1nn(Cc3cccc(Cl)c3)cc1CC2 | inactive: 82% |
| CCOC(=O)c1c(C)n(-c2ccccc2)c2ccc(OC(=O)c3c(F)cccc3F)cc12 | inactive: 80% |
| COCCNC(=O)CN1CCC(NC(=O)Nc2ccc(C(F)(F)F)cc2)CC1 | inactive: 102% |
| CCOc1ccc(Cn2c(CNS(=O)(=O)c3ccc(C(C)(C)C)cc3)nc3cccnc32)cc1 | inactive: 80% |
| COc1cccc(NC(=O)Cn2c(=O)n(Cc3ccc(C(=O)NCc4ccc(C)cc4)cc3)c(=O)c3ccccc32)c1 | inactive: 71% |

| Structure (SMILES) | survival |
| --- | --- |
| COc1ccc(Cl)cc1C(=O)NCCS(=O)(=O)N1CCN(c2ccccc2OC)CC1 | inactive: 71% |
| CCCC(C)C(=O)Nc1nnc(C(F)(F)F)s1 (stereo unspecified) | inactive: 100% |
| CCOc1ccc(CNC(=O)C2=Cc3cccc(OC)c3OC2)cc1 | inactive: 72% |
| COc1ccc(CCNC(=O)C2c3ccccc3C(=O)N2Cc2ccccc2)cc1OC (stereo unspecified) | inactive: 72% |
| Cc1ccccc1OCC(=O)Nc1ccc2nc(SCC(=O)N3CCOCC3)sc2c1 | inactive: 87% |
| O=C(CN1C(=O)C2(SCC(=O)N2c2ccc(F)c(F)c2)c2ccccc21)Nc1cccc(Cl)c1 (stereo unspecified) | inactive: 68% |
| CCOc1ccc(NC(=O)CCNS(=O)(=O)c2cccs2)cc1 | inactive: 59% |
| Cn1c(SCC#N)nc2c(c1=O)C1(CCCCC1)Cc1ccccc1-2 | inactive: 113% |
| Cc1ccc(-c2nn(CCC(N)=O)c(=O)c3ccccc23)cc1 | inactive: 65% |
| COc1c(C)cc(NS(=O)(=O)c2ccc3c(c2)OCCO3)cc1C | inactive: 85% |
| COc1ccc2c(C)c(CCC(=O)NCc3ccccc3Cl)c(=O)oc2c1C | inactive: 84% |
| O=C(CCC1CCCCC1)Nc1nccs1 | inactive: 114% |
| COc1ccc(CNC(=O)C2CCN(C(=O)N3CCOc4ccc(Cl)cc43)CC2)cc1 | inactive: 110% |
| Cc1cc(Nc2ccccc2O)nc(C)n1 | inactive: 84% |
| COc1ccc(NC(=O)CCCN2C(=O)CCn3nc(-c4cn(C)c5ccccc45)cc32)cc1 | inactive: 90% |
| Cc1ccc(C)c(S(=O)(=O)n2nc(C)c(S(=O)(=O)N3CCCCCC3)c2C)c1 | inactive: 63% |
| Cc1cccc(C)c1-n1ncc(C(=O)NCCN2CCN(C)CC2)c1C1CCN(C(=O)OC(C)(C)C)CC1 | active: 0% |
| CCOC(=O)c1cnc2ccc(OC)cc2c1Nc1cccc(C(C)=O)c1 | active: 2% |
